Experimental data as given in PubChem BioAssay AID540267 (National Center for Advancing Translational Sciences (NCATS), 2011).
Screen size: about 340,000 compounds; about 530 (0.16%) were called active. Inconclusive results, whose numbers are uncertain, are shown with a selection of clear calls. No stated cut-off is given here; in the data, active means activity change below about -80%; inconclusive means between about -30% and that limit; inactive means weaker than that.
On the % scale 0 is the no-effect control and ±100 the full control effect.

Assay: Small Molecules that selectively kill Giardia lamblia: qHTS;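 further: parasites exposed to compound for two days anaerobically before the ATP read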
Settings: Giardia lamblia trophozoite viability; at 7.66 µM; hits give low values
Procedure, shortened: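 Giardia trophozoites, 100 cells per well, were exposed to compounds for 48 hrs at 37 deg C under anaerobic conditions; viability was then read as ATP content by bioluminescence after 15-30 min at room temperature.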
For `O=C(Nc1ccccc1C(=O)O)c1ccc(NC(=O)C2CC2)cc1`, the activity change was inconclusive: -52.3% [inhibitor].
For `CNC(=O)c1nnc(Cc2ccc(F)cc2)o1`, the activity change was inconclusive: -36.1% [inhibitor].
With `COc1ccc(CCN(Cc2cccs2)S(=O)(=O)c2ccc(-n3cnnn3)cc2)cc1OC` the activity change was inactive: 0.698%.
With `Cc1ccc(C(=O)NCCc2csc(C)n2)cc1` the activity change was inconclusive: -38.8% [inhibitor].
For `COc1ccccc1N(Cc1ccccc1)S(=O)(=O)c1cccc(C(=O)O)c1`, the activity change was inconclusive: -34.4% [inhibitor].
In the case of `CCC1(c2ccc(F)cc2)NC(=O)N(CC(=O)Nc2ccc(N3CCCCC3)cc2)C1=O` (stereo not given), the activity change is reported as inconclusive: -42.3% [inhibitor].
With `CN(C)c1ccc(/C=C2/NC(=O)NC2=O)cc1` the activity change was inconclusive: -40.4% [inhibitor].
With `CCO[C@H]1OC(C(=O)O)=C[C@@H](c2cn(C(C)=O)c3ccccc23)[C@@H]1CCCO` the activity change was inconclusive: -32.7% [inhibitor].
In the case of `CN(C(=O)CSc1ncnc2sccc12)C1CCS(=O)(=O)C1` (stereo not given), the activity change is reported as inconclusive: -31% [inhibitor].
For `Cc1ccc(C(=O)Nc2ccc3c(c2)OCCO3)o1`, the activity change was inconclusive: -52.1% [inhibitor].
In the case of `CN(C)c1nc(OCCNC(=O)COc2ccc(Cl)cc2Cl)nc(N(C)C)n1`, the activity change is reported as inactive: 3.98%.
With `CCOC(=O)c1c(NC(=O)Cn2cnc([N+](=O)[O-])n2)sc2c1CCCC2` the activity change was inconclusive: -34.5% [inhibitor].
For `NC(=S)COc1ccccc1`, the activity change was inactive: 16.6%.
For `COCCNC(=O)C(c1ccc(C)o1)N(Cc1ccco1)C(=O)c1snc(C(N)=O)c1N` (stereo not given), the activity change was inconclusive: -33.5% [inhibitor].
With `CC(C)(C)C1CCC2(CC1)C(C#N)=C(SCC(=O)NC1CCCCC1)NC(=O)C2C#N` (stereo not given) the activity change was inactive: 13.9%.
For `COc1cccc(/C=C/C(=O)c2ccc3c(c2)OCCO3)c1OC`, the activity change was inconclusive: -35.9% [inhibitor].
For `CCC(=O)c1ccc(OCCn2cnc3ccccc32)cc1`, the activity change was inconclusive: -36.8% [inhibitor].
For `O=C(O)CCCCCN1C(=O)C(O)=C(C(=O)/C=C/c2ccccc2)C1c1cccc([N+](=O)[O-])c1` (stereo not given), the activity change was inactive: -16.3%.
For `O=[N+]([O-])c1ccc(/C=N/Nc2nc(-c3ccccc3)c3cc(Br)ccc3n2)o1`, the activity change was active: -91.4%.
In the case of `COc1cccc(CNC(=O)COc2ccc(C(=O)c3ccccc3)cc2)c1`, the activity change is reported as inconclusive: -31.5% [inhibitor].
For `CCOC(=O)Cc1csc(NC(=O)c2ccc(S(=O)(=O)N3CCCCC3)cc2)n1`, the activity change was inactive: 2.88%.
With `CC(CC(=O)Nc1nnc(CC(C)(C)C)s1)c1ccccc1` (stereo not given) the activity change was inconclusive: -33.7% [inhibitor].
In the case of `CC1CC(C)(C)NC(=S)N1CCCC(=O)NCc1ccccc1` (stereo not given), the activity change is reported as inactive: -22.4%.
In the case of `O=C(NNC(=O)c1ccncc1)Nc1cccc([N+](=O)[O-])c1`, the activity change is reported as inconclusive: -49.2% [inhibitor].
For `O=C(Nc1nc2c(Cl)cccc2s1)c1ccc([N+](=O)[O-])o1`, the activity change was active: -101%.
For `COc1ccc(S(=O)(=O)Nc2ccccc2)cc1`, the activity change was inactive: 2.76%.
For `CCN1C[C@@H]2[C@@H]3C(=O)N(C)C(=O)[C@@H]3[C@](C)(C1=O)N2C(=O)c1ccc(Cl)c(Cl)c1`, the activity change was inconclusive: -51.5% [inhibitor].
With `CCC/C(=C1/c2ccccc2C(=O)N1c1ccccc1)c1ccc2[nH]ccc2c1` the activity change was inconclusive: -31.1% [inhibitor].
In the case of `CCN(c1ccc(OC)cc1)S(=O)(=O)c1ccc2c(c1)NC(=O)CS2`, the activity change is reported as inconclusive: -31.5% [inhibitor].
For `O=C(NCc1ccco1)c1ccc(-c2csnn2)cc1`, the activity change was inconclusive: -41.4% [inhibitor].
With `O=C(Nc1cccc(-c2ccc(N3CCCCC3)nn2)c1)c1ccc(Br)o1` the activity change was inconclusive: -30.9% [inhibitor].
For `Cc1ccnc(NC(=O)c2cc(F)c(F)cc2Cl)n1`, the activity change was inconclusive: -30.1% [inhibitor].
For `N/C(=N\OCc1ccc([N+](=O)[O-])cc1)c1ccccn1`, the activity change was inconclusive: -49.4% [inhibitor].
In the case of `CCOC(=O)c1cc2c(N)c(C(=O)c3ccc(Br)cc3)sc2[nH]c1=O`, the activity change is reported as inconclusive: -31.3% [inhibitor].
For `CC(=O)COc1ccc2c(c1C)O/C(=C\c1ccco1)C2=O`, the activity change was inconclusive: -32.3% [inhibitor].
For `COC(=O)c1cccc(NC(=O)CSc2nnc(COc3ccc(C#N)cc3)n2-c2ccccc2)c1`, the activity change was inactive: -22.4%.
In the case of `CC1CN(C(=O)COc2ccc3ccccc3c2Br)CC(C)O1` (stereo not given), the activity change is reported as inactive: -11.7%.
In the case of `COC(=O)c1cccc(NC(=O)c2cnn(C)c2)c1`, the activity change is reported as inconclusive: -33.3% [inhibitor].
With `O=C1c2ccccc2-c2onc3ccc(Oc4ccccc4)c1c23` the activity change was inactive: -2.94%.
In the case of `CCOC(=O)[C@@H]1[C@H]2COc3ccc(Br)cc3[C@@H]2N2C(=O)N(c3ccc(F)cc3)C(=O)[C@@]12C`, the activity change is reported as inconclusive: -42.7% [inhibitor].
With `CC(=O)Nc1ccc(S(=O)(=O)N[C@@H](C)C(=O)OCC(=O)Nc2ccc3c(c2)OCCO3)cc1` the activity change was inconclusive: -41.2% [inhibitor].
In the case of `O=C1C=C(c2ccc3c(c2)oc2ccccc23)C[C@@H](c2ccc(Cl)cc2)C1`, the activity change is reported as inconclusive: -35.5% [inhibitor].
In the case of `CN(CC(=O)Nc1ccccc1C(F)(F)F)C(=O)c1ccccc1Sc1ccccc1C#N`, the activity change is reported as inconclusive: -34.1% [inhibitor].
With `COC(=O)c1c(NC(=O)C(=O)NCC2CCCO2)sc2c1CC(C)(C)OC2` (stereo not given) the activity change was inconclusive: -32.4% [inhibitor].
In the case of `CCOc1ccccc1NS(=O)(=O)c1c[nH]c(C(=O)OC)c1`, the activity change is reported as inconclusive: -45.8% [inhibitor].
In the case of `O=C(O)c1ccccc1NS(=O)(=O)c1ccc(NNC(=S)Nc2ccc(OC(F)F)cc2)c([N+](=O)[O-])c1`, the activity change is reported as inactive: -2.63%.
In the case of `CCOC(=O)N1CCN(C(=O)c2cc3c(s2)-c2c(C)cccc2OC3)CC1`, the activity change is reported as inconclusive: -30.9% [inhibitor].
In the case of `CC(C)Cc1cc(CN2CCC(CO)(Cc3cccc(C(F)(F)F)c3)CC2)[nH]n1`, the activity change is reported as inactive: 10.4%.
With `NC(Cc1ccc(O)cc1)c1cn([C@@H](CCC(=O)O)C(=O)N2CCNCC2)nn1` (stereo not given in full) the activity change was inconclusive: -44.5% [inhibitor].
In the case of `O=C1c2ccccc2C(=O)C1c1ccncc1`, the activity change is reported as inconclusive: -52.9% [inhibitor].
With `Cc1cc(C)c(NC(=O)COc2cccnc2[N+](=O)[O-])c(C)c1` the activity change was inconclusive: -38.7% [inhibitor].
For `Cc1ccc(S(=O)(=O)N2[C@@H](c3ccccc3)C(C(=O)O)=CC[C@H]2c2ccc3c(c2)OCO3)cc1`, the activity change was inconclusive: -51.8% [inhibitor].
In the case of `CCOC(=O)N1CCN(c2ccc(S(=O)(=O)N3CCOCC3)cc2[N+](=O)[O-])CC1`, the activity change is reported as inconclusive: -31.5% [inhibitor].
With `O=C(c1ccc(=O)[nH]c1)N1CCCc2ccccc21` the activity change was inconclusive: -32% [inhibitor].
With `COc1ccc(-c2csc(NC(=S)NC(=O)c3ccco3)n2)cc1Br` the activity change was inconclusive: -44.1% [inhibitor].
With `CCN(C(=O)COC(=O)c1ccc(Cl)c(N)c1)C1CCS(=O)(=O)C1` (stereo not given) the activity change was inconclusive: -33.5% [inhibitor].
With `CCOC(=O)[C@@H]1[C@H]2COc3cc(OC)ccc3[C@H]2N2C(=O)N(c3ccc(C)cc3)C(=O)[C@]12C` the activity change was inconclusive: -36.7% [inhibitor].
In the case of `Cc1ccc(C(=O)NCc2ccc(Cl)cc2)cc1S(=O)(=O)N1CCCCC1`, the activity change is reported as inactive: 3.29%.
In the case of `O=C(N=Nc1c(O)[nH]c2ccccc12)c1cccs1`, the activity change is reported as inconclusive: -45.5% [inhibitor].
For `Cc1ccc(CN=Cc2[nH]c3ccc(Br)c(Cl)c3c2O)cc1`, the activity change was inactive: 8.21%.
In the case of `Cn1cnnc1SCCOc1ccc(Cl)cc1`, the activity change is reported as inactive: -2.07%.
With `COc1ccc(C/C(N)=N/OC(=O)c2ccco2)cc1OC` the activity change was inconclusive: -30.1% [inhibitor].
For `Cc1ccccc1Cn1nnc2c1C(=O)c1ccccc1C2=O`, the activity change was inconclusive: -53.1% [inhibitor].
For `CC1(C)Cc2c(sc(NC(=O)c3ccc(Br)o3)c2C#N)CO1`, the activity change was inconclusive: -32.3% [inhibitor].
In the case of `Cc1nc2ccccc2n1/N=C/c1ccc([N+](=O)[O-])o1`, the activity change is reported as inconclusive: -35.6% [inhibitor].
For `Cc1cc(C(=O)COc2cccnc2[N+](=O)[O-])c(C)n1Cc1cccs1`, the activity change was active: -93.6%.
With `Cc1cc(SCC(=O)N/N=C/c2ccc(C(=O)O)cc2)nc2ccccc12` the activity change was inconclusive: -36.9% [inhibitor].
In the case of `CC[C@@H](C)[C@H](NC(=O)Cc1c(C)c2c(cc(C)c3c(C)coc32)oc1=O)C(=O)O`, the activity change is reported as inconclusive: -35.3% [inhibitor].
For `C/C(=N\Nc1cc(N2CCCCC2)nc(C)n1)c1ccc(Br)cc1`, the activity change was inconclusive: -31.2% [inhibitor].
With `CC(C)n1c(SCC(=O)Nc2ccc(N3CCOCC3)cc2)nnc1-c1ccco1` the activity change was inconclusive: -33.6% [inhibitor].
For `C/C(=N\NC(=O)COc1ccc(C)cc1Br)c1cc([N+](=O)[O-])cs1`, the activity change was inconclusive: -69.9% [inhibitor].
With `Cc1cccc(-c2cc3c(nn2)-c2ccccc2C3=O)c1` the activity change was inconclusive: -38% [inhibitor].
With `COc1ccc(OC)c(CCNC(=O)CCCc2nnc3n(C)c(=O)c4sccc4n23)c1` the activity change was inconclusive: -35.8% [inhibitor].
With `CCc1ccc(-n2c(C)nc3cc(C(=O)NCc4cccnc4)ccc32)cc1` the activity change was inactive: -5.83%.
In the case of `NC(=O)c1ncn([C@@H]2O[C@H](CNCc3ccccc3C#Cc3ccccc3)[C@@H](O)[C@H]2O)n1`, the activity change is reported as inconclusive: -33% [inhibitor].
